Data from paper PMC3944433.
Where two headings read alike, the source gives them in different places. These are yes or no findings as the source states them, for the method shown. In cells and extracts the contact can be indirect. Some binding calls cover weakened binding; strength is not graded here. For part of these data: Where a sequence is shown, tags or fusion partners need not be part of it. Blank lines part the entries; values can stand above or below the molecule they belong to.

Sequences of proteins named here, by UniProt entry; tags and fusion partners are left off. A change or cut given only in a name is not applied to a line headed by its entry. A line that says so, or that is headed by a name, gives the form on record, which may keep a tag or linker. Residues count along the entry.
UniProt Q9VQ56: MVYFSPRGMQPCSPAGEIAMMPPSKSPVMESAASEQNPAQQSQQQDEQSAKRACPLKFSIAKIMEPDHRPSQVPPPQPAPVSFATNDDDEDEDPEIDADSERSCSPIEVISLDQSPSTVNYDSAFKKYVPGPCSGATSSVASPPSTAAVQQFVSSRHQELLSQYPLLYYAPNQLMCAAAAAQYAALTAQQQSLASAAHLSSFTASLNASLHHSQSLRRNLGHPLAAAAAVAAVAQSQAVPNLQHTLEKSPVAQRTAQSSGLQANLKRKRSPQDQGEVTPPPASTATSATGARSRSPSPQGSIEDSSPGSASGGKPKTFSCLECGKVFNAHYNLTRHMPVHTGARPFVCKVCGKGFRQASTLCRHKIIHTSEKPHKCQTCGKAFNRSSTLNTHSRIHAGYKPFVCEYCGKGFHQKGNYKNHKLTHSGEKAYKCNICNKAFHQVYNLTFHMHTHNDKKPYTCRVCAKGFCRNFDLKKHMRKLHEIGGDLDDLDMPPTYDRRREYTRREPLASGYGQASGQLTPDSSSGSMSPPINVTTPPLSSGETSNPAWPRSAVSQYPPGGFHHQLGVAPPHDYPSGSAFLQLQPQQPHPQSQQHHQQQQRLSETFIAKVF
MBP-Erm-N (Maltose-Binding Protein fused to Erm 1-441aa) (Drosophila (D. melanogaster)): residues 1-441 of Q9VQ56
MBP-Erm-C (Maltose-Binding Protein fused to Erm 332-611aa) (Drosophila (D. melanogaster)): residues 332-611 of Q9VQ56
UniProt P25439: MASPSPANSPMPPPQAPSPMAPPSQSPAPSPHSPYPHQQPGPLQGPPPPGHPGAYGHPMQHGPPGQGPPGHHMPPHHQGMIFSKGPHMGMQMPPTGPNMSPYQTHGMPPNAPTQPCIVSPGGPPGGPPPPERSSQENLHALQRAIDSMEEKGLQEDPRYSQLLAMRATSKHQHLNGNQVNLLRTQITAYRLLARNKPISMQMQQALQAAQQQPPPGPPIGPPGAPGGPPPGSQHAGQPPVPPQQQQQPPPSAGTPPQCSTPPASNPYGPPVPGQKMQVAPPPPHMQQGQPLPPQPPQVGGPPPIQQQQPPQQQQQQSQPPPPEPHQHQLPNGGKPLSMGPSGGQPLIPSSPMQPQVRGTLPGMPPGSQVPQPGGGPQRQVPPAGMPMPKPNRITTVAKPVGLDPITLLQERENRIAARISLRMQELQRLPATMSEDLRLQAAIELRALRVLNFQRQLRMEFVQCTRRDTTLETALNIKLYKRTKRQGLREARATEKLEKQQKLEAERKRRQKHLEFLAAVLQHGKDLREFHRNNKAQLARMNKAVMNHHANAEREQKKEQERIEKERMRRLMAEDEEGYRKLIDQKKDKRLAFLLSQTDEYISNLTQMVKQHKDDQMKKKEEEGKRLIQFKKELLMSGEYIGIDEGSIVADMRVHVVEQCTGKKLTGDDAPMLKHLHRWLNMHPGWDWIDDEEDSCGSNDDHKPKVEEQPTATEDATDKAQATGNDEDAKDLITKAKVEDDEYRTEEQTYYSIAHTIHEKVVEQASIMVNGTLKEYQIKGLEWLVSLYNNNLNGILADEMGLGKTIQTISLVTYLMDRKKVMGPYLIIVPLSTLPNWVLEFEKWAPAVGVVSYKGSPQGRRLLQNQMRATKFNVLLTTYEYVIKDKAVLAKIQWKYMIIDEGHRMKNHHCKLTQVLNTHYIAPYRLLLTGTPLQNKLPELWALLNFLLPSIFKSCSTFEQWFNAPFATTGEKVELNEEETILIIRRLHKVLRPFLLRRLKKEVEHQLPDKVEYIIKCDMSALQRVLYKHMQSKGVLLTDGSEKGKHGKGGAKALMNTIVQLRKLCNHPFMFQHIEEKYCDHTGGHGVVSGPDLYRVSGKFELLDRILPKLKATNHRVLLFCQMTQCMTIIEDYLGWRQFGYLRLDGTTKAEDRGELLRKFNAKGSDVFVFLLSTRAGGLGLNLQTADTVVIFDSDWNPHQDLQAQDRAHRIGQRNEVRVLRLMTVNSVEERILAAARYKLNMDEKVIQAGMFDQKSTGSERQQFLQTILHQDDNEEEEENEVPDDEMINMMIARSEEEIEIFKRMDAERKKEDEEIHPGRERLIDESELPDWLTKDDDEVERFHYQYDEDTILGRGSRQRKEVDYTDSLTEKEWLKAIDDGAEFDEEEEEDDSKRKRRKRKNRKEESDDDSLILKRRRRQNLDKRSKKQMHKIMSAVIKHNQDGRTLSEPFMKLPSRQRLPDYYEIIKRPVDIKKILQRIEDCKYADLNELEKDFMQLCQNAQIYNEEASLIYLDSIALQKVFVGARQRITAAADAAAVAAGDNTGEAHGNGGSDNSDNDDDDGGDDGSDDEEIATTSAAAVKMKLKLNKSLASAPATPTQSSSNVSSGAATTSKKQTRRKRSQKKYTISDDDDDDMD
UniProt Q9VYG2: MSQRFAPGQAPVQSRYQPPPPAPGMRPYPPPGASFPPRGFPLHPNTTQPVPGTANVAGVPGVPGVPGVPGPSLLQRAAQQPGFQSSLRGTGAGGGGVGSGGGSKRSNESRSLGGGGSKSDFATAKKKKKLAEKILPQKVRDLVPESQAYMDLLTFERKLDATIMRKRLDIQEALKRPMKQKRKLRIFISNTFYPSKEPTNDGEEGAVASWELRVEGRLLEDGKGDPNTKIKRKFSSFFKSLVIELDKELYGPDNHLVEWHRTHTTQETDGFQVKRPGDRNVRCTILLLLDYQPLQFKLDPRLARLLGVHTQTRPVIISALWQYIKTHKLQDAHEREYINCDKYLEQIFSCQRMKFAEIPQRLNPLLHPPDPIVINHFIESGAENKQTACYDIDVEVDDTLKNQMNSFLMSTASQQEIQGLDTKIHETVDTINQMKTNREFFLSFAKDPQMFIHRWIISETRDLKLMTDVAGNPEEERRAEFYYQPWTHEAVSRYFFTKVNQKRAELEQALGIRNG

How the values were obtained:
[1] = biological target: Myc-tagged Erm N-terminal 1-441aa (Drosophila (D. melanogaster)) (UniProt Q9VQ56); assay: co-IP; S2 cells co-transfected with Flag- and Myc-tagged proteins; lysis buffer 25 mM Tris pH8, 27.5 mM NaCl, 20 mM KCl, 0.5% Nonidet P40; IP with anti-Myc or anti-Flag overnight at 4°C, protein A/G beads; western blot with anti-Flag and anti-Myc
[2] = biological target: Myc-tagged Erm C-terminal 332-611aa (Drosophila (D. melanogaster)) (UniProt Q9VQ56); assay: as above
[3] = biological target: Myc-tagged Earmuff (Erm), full length (Drosophila (D. melanogaster)) (UniProt Q9VQ56); assay: as above
[4] = biological target: MBP-Erm-C (Maltose-Binding Protein fused to Erm 332-611aa) (Drosophila (D. melanogaster)) (UniProt Q9VQ56); assay: pull-down; 50 μg purified MBP or MBP fusion protein bound on amylose resin, incubated 3 hr at 4°C with protein extracts from transfected S2 cells; washed three times with lysis buffer; western blot with anti-Myc; only the target purified
[5] = biological target: MBP-Erm-N (Maltose-Binding Protein fused to Erm 1-441aa) (Drosophila (D. melanogaster)) (UniProt Q9VQ56); assay: as above
[6] = biological target: Flag-tagged Erm N-terminal 1-441aa (Drosophila (D. melanogaster)) (UniProt Q9VQ56); assay: co-IP; S2 cells co-transfected with Flag- and Myc-tagged proteins; lysis buffer 25 mM Tris pH8, 27.5 mM NaCl, 20 mM KCl, 0.5% Nonidet P40; IP with anti-Myc or anti-Flag overnight at 4°C, protein A/G beads; western blot with anti-Flag and anti-Myc
[7] = biological target: Flag-tagged Erm C-terminal 332-611aa (Drosophila (D. melanogaster)) (UniProt Q9VQ56); assay: as above
[8] = biological target: T1, Flag-tagged Histone deacetylase 3 (HDAC3) (Drosophila (D. melanogaster)) (UniProt Q7KTS4); assay: as above
T1 sequence: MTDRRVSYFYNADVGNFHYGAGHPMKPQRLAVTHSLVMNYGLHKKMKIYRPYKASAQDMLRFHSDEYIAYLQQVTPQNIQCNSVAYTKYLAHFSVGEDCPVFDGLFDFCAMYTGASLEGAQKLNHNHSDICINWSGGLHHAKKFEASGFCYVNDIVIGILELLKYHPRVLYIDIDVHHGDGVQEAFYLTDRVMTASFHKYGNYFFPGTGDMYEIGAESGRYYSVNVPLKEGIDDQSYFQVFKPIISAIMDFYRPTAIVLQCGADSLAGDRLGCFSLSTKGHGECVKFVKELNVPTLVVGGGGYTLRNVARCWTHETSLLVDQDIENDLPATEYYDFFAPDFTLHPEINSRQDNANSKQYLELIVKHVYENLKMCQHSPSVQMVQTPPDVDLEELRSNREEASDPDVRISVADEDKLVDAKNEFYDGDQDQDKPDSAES

[9] = biological target: Flag-tagged Brahma (Brm) (Drosophila (D. melanogaster)) (UniProt P25439); assay: as above
[10] = biological target: Flag-tagged BAP60 (Drosophila (D. melanogaster)) (UniProt Q9VYG2); assay: as above
[11] = biological target: Myc-tagged Brahma (Brm) (Drosophila (D. melanogaster)) (UniProt P25439); assay: as above
[12] = biological target: Myc-tagged Erm N-terminal 1-441aa (Drosophila (D. melanogaster)) (UniProt Q9VQ56); assay: as above; remark: listed apart in the source
[13] = biological target: Myc-tagged Erm C-terminal 332-611aa (Drosophila (D. melanogaster)) (UniProt Q9VQ56); assay: as above; remark: listed apart in the source
[14] = biological target: MBP-Erm-C (Maltose-Binding Protein fused to Erm 332-611aa) (Drosophila (D. melanogaster)) (UniProt Q9VQ56); assay: pull-down; 50 μg purified MBP or MBP fusion protein bound on amylose resin, incubated 3 hr at 4°C with protein extracts from transfected S2 cells; washed three times with lysis buffer; western blot with anti-Myc; only the target purified; remark: listed apart in the source
[15] = biological target: MBP-Erm-N (Maltose-Binding Protein fused to Erm 1-441aa) (Drosophila (D. melanogaster)) (UniProt Q9VQ56); assay: as above; remark: listed apart in the source

binding [1]: binds
binding [2]: no binding
Molecule: Flag-tagged BAP60 (from UniProt Q9VYG2 1-515)

binding [3]: binds
Molecule: Flag-tagged Brahma (Brm) (from UniProt P25439 1-1638)

binding [4]: binds weakly
binding [5]: binds
binding [6]: binds
binding [7]: binds weakly
binding [8]: binds
Molecule: Myc-tagged Brahma (Brm) (from UniProt P25439 1-1638)

binding [9]: binds
Molecule: Myc-tagged Earmuff (Erm), full length (from UniProt Q9VQ56 1-611)

binding [10]: binds
Molecule: Myc-tagged Erm N-terminal 1-441aa (from UniProt Q9VQ56 1-441) (domain or fragment)

binding [11]: binds
binding [12]: binds
binding [13]: no binding
B1: Flag-tagged Histone deacetylase 3 (HDAC3) (enzyme, UniProt Q7KTS4 1-438)
chain: MTDRRVSYFYNADVGNFHYGAGHPMKPQRLAVTHSLVMNYGLHKKMKIYRPYKASAQDMLRFHSDEYIAYLQQVTPQNIQCNSVAYTKYLAHFSVGEDCPVFDGLFDFCAMYTGASLEGAQKLNHNHSDICINWSGGLHHAKKFEASGFCYVNDIVIGILELLKYHPRVLYIDIDVHHGDGVQEAFYLTDRVMTASFHKYGNYFFPGTGDMYEIGAESGRYYSVNVPLKEGIDDQSYFQVFKPIISAIMDFYRPTAIVLQCGADSLAGDRLGCFSLSTKGHGECVKFVKELNVPTLVVGGGGYTLRNVARCWTHETSLLVDQDIENDLPATEYYDFFAPDFTLHPEINSRQDNANSKQYLELIVKHVYENLKMCQHSPSVQMVQTPPDVDLEELRSNREEASDPDVRISVADEDKLVDAKNEFYDGDQDQDKPDSAES

binding [14]: no binding
binding [15]: binds
B2: Myc-tagged Histone deacetylase 3 (HDAC3) (enzyme, UniProt Q7KTS4 1-438)
chain: MTDRRVSYFYNADVGNFHYGAGHPMKPQRLAVTHSLVMNYGLHKKMKIYRPYKASAQDMLRFHSDEYIAYLQQVTPQNIQCNSVAYTKYLAHFSVGEDCPVFDGLFDFCAMYTGASLEGAQKLNHNHSDICINWSGGLHHAKKFEASGFCYVNDIVIGILELLKYHPRVLYIDIDVHHGDGVQEAFYLTDRVMTASFHKYGNYFFPGTGDMYEIGAESGRYYSVNVPLKEGIDDQSYFQVFKPIISAIMDFYRPTAIVLQCGADSLAGDRLGCFSLSTKGHGECVKFVKELNVPTLVVGGGGYTLRNVARCWTHETSLLVDQDIENDLPATEYYDFFAPDFTLHPEINSRQDNANSKQYLELIVKHVYENLKMCQHSPSVQMVQTPPDVDLEELRSNREEASDPDVRISVADEDKLVDAKNEFYDGDQDQDKPDSAES
